Reference: PubChem BioAssay AID2147 (National Center for Advancing Translational Sciences (NCATS), 2009)
Out of some 230,000 compounds screened, about 3,600 (1.6%) were called active. Inconclusive results, whose numbers are uncertain, are shown with a selection of clear calls. Calls come from the whole dose curve; as a rule, active = well fitted inhibition curve with a large enough effect (not every such curve was filed as active); inconclusive = small, poorly fitted or top-dose-only effect, or another doubt; inactive = no such curve, though single readings can be large or run the other way. A potency beside an inconclusive call is a rough fit, not a confirmed value.
Note: nearly all actives have a fitted effect of over 50% in size.
Potency is the fitted concentration of half-maximal effect; tags give direction and shape of the fitted curve.
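Throughout, for activity change, negative = inhibition: 0% = wells with enzyme and -100% = buffer wells without enzyme.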

These compounds were tested against Lysine-specific demethylase 4E (Homo sapiens) (UniProt B2RXH2) (assay: qHTS Assay for Inhibitors of Human Jumonji Domain Containing 2E (JMJD2E)). Details: JMJD2E catalytic domain, FDH-coupled NADH fluorescence (FDH is formaldehyde dehydrogenase); series mostly up to 57.1 µM; activity change, negative = inhibition: at the top concentration.
Chain of UniProt B2RXH2 (B2RXH2 whole entry, looked up, the tested form may be a part): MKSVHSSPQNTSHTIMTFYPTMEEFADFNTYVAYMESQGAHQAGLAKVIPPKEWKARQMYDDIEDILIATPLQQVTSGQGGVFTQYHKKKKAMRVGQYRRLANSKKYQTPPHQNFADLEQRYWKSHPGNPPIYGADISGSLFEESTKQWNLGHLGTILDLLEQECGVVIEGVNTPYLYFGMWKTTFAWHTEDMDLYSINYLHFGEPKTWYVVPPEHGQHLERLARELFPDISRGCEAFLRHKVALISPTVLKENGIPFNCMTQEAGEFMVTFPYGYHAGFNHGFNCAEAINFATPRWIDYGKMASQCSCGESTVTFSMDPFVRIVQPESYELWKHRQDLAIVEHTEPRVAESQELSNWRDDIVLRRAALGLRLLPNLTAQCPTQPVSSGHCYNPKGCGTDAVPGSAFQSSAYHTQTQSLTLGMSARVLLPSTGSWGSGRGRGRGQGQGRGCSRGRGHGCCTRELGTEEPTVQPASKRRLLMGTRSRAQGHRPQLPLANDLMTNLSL
With `O=C(NCCN1CCOCC1)c1cnn2c(-c3ccccc3)cc(-c3ccccc3)nc12` the Potency was inconclusive: 28.2 µM [inhibitor, partial curve].
`Cn1cccc1-c1nc2ccccc2[nH]1` was tested, and the Potency was inconclusive: 35.5 µM [inhibitor, partial curve].
With `O=C(Nc1cc(S(=O)(=O)N2CCOCC2)ccc1N1CCOCC1)c1ccc(S(=O)(=O)N2CCCCC2)cc1` the Potency was inconclusive: 28.2 µM [inhibitor, single point].
For `Nc1nc(Nc2cccc(F)c2)nc2ccccc12`, the Potency was inconclusive: 39.8 µM [inhibitor, single point].
With `CN(C(=O)COC(=O)c1ccc(=O)n(Cc2ccccc2)n1)c1ccccc1` the “activity change, negative = inhibition” value was inactive: 8.68%.
With `CCOC(=O)CC(CC(C)=O)C(=O)OCC` (configuration not stated) the “activity change, negative = inhibition” value was inactive: 1.69%.
`O=C(O)C1Cc2[nH]cnc2C(c2cccc([N+](=O)[O-])c2)N1` (configuration not stated) was tested, and the Potency was inconclusive: 35.5 µM [inhibitor, single point].
`COc1ccc(OC)c(-c2cc(C(=O)NCc3cccs3)no2)c1` was tested, and the Potency was inconclusive: 35.5 µM [inhibitor, partial curve].
`COc1cc(C)c(CNc2cc(C)cc(C)c2)cc1C` was tested, and the “activity change, negative = inhibition” value was inactive: 6.32%.
`Cn1c(NCc2c(O)ccc3ccccc23)nc2ccccc21` was tested, and the Potency was inconclusive: 25.1 µM [inhibitor, partial curve].
With `CCCCc1nc(NCCN)c(C#N)c2c1CSC(C)(C)C2` the Potency was inconclusive: 31.6 µM [inhibitor, single point].
`Cc1c(Br)c(O)c(Br)c2sc(=O)oc12` was tested, and the Potency was active: 31.6 µM.
With `Cc1cc(C)c(C#N)c(Nc2ccccc2Cl)n1` the Potency was inconclusive: 35.5 µM [inhibitor, single point].
`CCN(C)c1ccc(/C=N\n2nnnc2N)cc1` was tested, and the Potency was inconclusive: 14.1 µM [inhibitor, partial curve].
In the case of `CCOC(=O)N1CCC(NC(=O)Cc2cn(C)c3ccccc23)CC1`, the Potency is reported as inconclusive: 39.8 µM [inhibitor, single point].
In the case of `Fc1cnc(N2CCOCC2)nc1N1CCOCC1`, the Potency is reported as inconclusive: 28.2 µM [inhibitor, single point].
With `O=C(Oc1ccc(N(Cc2cccs2)C2=NS(=O)(=O)c3ccccc32)cc1)c1ccccc1F` the Potency was inconclusive: 22.4 µM [inhibitor, single point].
In the case of `CCOC(=O)C1Cc2c([nH]c3ccccc23)CN1` (configuration not stated), the Potency is reported as inconclusive: 11.2 µM [inhibitor, partial curve].
With `CCOC(=O)c1sc2nc(C)nc(NCc3cccnc3)c2c1C` the Potency was inconclusive: 20 µM [inhibitor, partial curve].
With `CCCCOc1ccc(/C(O)=C2/C(=O)C(=O)N(CCCOC)C2c2ccncc2)cc1C` (configuration not stated) the Potency was inconclusive: 39.8 µM [inhibitor, single point].
For `Cc1ccc(NC(=O)CCSc2nnc3ccccn23)cc1`, the Potency was inconclusive: 28.2 µM [inhibitor, partial curve].
With `CN(C)/C=C/C(=O)c1ccc(N2CCN(c3ncc(C(F)(F)F)cc3Cl)CC2)cc1` the Potency was inconclusive: 39.8 µM [inhibitor, single point].
In the case of `CC(OC(=O)c1ccccc1NCc1ccco1)C(=O)Nc1ncc(Cl)cc1Cl` (configuration not stated), the Potency is reported as inconclusive: 31.6 µM [inhibitor, partial curve].
With `c1ccc(-c2noc(CSc3nnnn3-c3ccccc3)n2)cc1` the “activity change, negative = inhibition” value was inactive: 5.35%.
`Cc1ccc(C(=O)N2CCN(c3ccc(NC(=O)COc4ccccc4C)cc3)CC2)cc1` was tested, and the “activity change, negative = inhibition” value was inactive: 5.42%.
With `O=C(Nc1ccccc1)Nc1ccc(Oc2cccnc2)nc1` the “activity change, negative = inhibition” value was inactive: -15.7%.
In the case of `O=C(NC(=S)NNC(=O)c1cc2ccccc2cc1O)c1ccco1`, the Potency is reported as active: 17.8 µM.
For `COC(=O)[C@@]1(Cc2ccccc2)C=C[C@@H](C)N1C(=O)c1ccccc1`, the “activity change, negative = inhibition” value was inactive: 5.95%.
With `Cc1ccc(-c2nnn(CC(=O)Nc3ccc4nn(-c5ccccc5)nc4c3)n2)o1` the Potency was inconclusive: 31.6 µM [inhibitor, partial curve].
With `Cn1c(-c2ccc(Cl)cc2)ccc(C#N)c1=O` the Potency was inconclusive: 22.4 µM [inhibitor, partial curve].
`CC(=O)NNc1cc(N2CCOCC2)nc(N2CCOCC2)n1` was tested, and the Potency was inconclusive: 20 µM [inhibitor, partial curve].
In the case of `CCCCSc1[nH]c(=O)c(C(=O)OCC)cc1C#N`, the Potency is reported as inconclusive: 22.4 µM [inhibitor, partial curve].
With `C(=N\N(c1ccccc1)c1ccccc1)/c1ccc2c(c1)OCO2` the “activity change, negative = inhibition” value was inactive: -3.23%.
For `S=C(Nc1ccc(Cl)cc1Cl)Nn1cnnc1`, the “activity change, negative = inhibition” value was inactive: -1.34%.
For `CC(C)CC(OC(=O)c1nsc(Cl)c1Cl)C(=O)NCc1cccs1` (configuration not stated), the “activity change, negative = inhibition” value was inactive: 3.54%.
With `CC(=O)N1CCC2(CC1)CC(=O)c1cc(OCC(=O)NCc3ccco3)ccc1O2` the Potency was inconclusive: 28.2 µM [inhibitor, partial curve].
For `Cc1cc(-c2csc(N)n2)c(C)n1CCC(C)C`, the “activity change, negative = inhibition” value was inactive: -7.02%.
With `Cc1cc(C)nc(N(C#N)Cc2cccc(Cl)c2)n1` the Potency was inconclusive: 0.501 µM [inhibitor, full curve, poor fit].
With `CCOC(=O)c1c(-c2ccc(C)cc2)csc1NC(=O)CCN1CCOCC1` the Potency was active: 31.6 µM.
In the case of `C=CCN(CC=C)S(=O)(=O)c1ccc(C(=O)Nc2nnc(COC)o2)cc1`, the Potency is reported as inconclusive: 39.8 µM [inhibitor, single point].
In the case of `S=c1[nH]cc(-c2ccccc2)n1-c1cccc(Cl)c1`, the Potency is reported as inconclusive: 3.98 µM [inhibitor, single point].
In the case of `COc1ccc2oc(-c3ccc(C)c(NC(=O)CSc4ccc(Cl)cc4)c3)nc2c1`, the Potency is reported as inconclusive: 28.2 µM [inhibitor, partial curve].
`COc1cc(C(=S)N2CCCC2)cc(OC)c1OS(=O)(=O)c1ccc(NC(C)=O)cc1` was tested, and the “activity change, negative = inhibition” value was inactive: 0.365%.
For `COC(=O)c1ccc(CNC(=O)COC(=O)c2ccc(N(C)C)cc2)cc1`, the Potency was inconclusive: 35.5 µM [inhibitor, single point].
In the case of `NC(=O)CSc1nnc2ccc(-c3ccc(F)cc3)nn12`, the Potency is reported as inconclusive: 8.91 µM [inhibitor, single point].
`CCCCCCc1cc2cc(C(=O)OCC)c(=O)oc2cc1O` was tested, and the Potency was inconclusive: 0.794 µM [inhibitor, full curve].
In the case of `O=C(CSc1nnnn1-c1ccccc1)Nc1ncc2c(n1)CC(c1ccco1)CC2=O` (configuration not stated), the “activity change, negative = inhibition” value is reported as inactive: 24.2%.
